Data on 28 molecules can be found in paper PMC6919601, “Identification of Plasmodium dipeptidyl aminopeptidase allosteric inhibitors by high throughput screening” (PLoS ONE, 2019).

In all, about 110,000 compounds went through this assay and about 230 (0.21%) showed an effect of 50% or more. This is one part of the list.
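Note: 30 min substrate incubation versus DMSO and 10 µM JCP410 controls.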

DPAP1, sequence (Q8IIJ9 whole entry, looked up): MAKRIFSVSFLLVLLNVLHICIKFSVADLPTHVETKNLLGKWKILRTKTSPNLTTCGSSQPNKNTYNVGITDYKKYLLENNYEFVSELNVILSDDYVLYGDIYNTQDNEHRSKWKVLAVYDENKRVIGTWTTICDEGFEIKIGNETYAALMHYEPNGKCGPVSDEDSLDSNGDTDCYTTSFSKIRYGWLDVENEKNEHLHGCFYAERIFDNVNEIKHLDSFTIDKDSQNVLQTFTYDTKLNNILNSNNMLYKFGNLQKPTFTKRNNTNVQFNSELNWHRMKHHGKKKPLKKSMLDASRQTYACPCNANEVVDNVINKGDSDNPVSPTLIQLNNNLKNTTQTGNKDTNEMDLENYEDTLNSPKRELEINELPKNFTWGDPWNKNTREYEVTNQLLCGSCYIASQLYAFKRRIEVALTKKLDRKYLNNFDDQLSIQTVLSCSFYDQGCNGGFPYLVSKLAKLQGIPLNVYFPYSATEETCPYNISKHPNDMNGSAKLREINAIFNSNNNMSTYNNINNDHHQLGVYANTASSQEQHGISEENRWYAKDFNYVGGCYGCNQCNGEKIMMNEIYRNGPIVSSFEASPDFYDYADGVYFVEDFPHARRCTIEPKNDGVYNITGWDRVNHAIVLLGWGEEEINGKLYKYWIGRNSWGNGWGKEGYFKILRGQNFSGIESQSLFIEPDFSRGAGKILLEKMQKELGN

The assay has as its target DPAP1 (Plasmodium falciparum, UniProt Q8IIJ9). The assay can be described thus: primary screen, percent inhibition; read by cleavage of a fluorogenic dipeptide substrate; higher = more effect of the substance. On the set-up: species or system P. falciparum D10 trophozoite lysates; single well.
On to `COc1cc(OC)c2nc(C)cc(Cl)c2c1`, for which the “% Inhibition @ 10 uM” value was determined as 2.77%.
`CC1CCCC(NC(=O)C2CCN(c3ncnc4c3nc3n4CCCCC3)CC2)C1C` (stereo not shown): the “% Inhibition @ 10 uM” value stood at 3.27%.
In the case of `O=C(O)c1ccccc1NC1OC(CO)C(O)C(O)C1O` (stereo not shown), the “% Inhibition @ 10 uM” value was 1.66%.
Under `Cc1ccc(C(=O)O)cc1-c1ccc(/C=C2/NC(=O)N(Cc3ccccc3F)C2=O)o1` stands -3.63%.
For `COc1ccc(CCNC(=O)Cn2nc(C)n3c(cc4cc(C)ccc43)c2=O)c(OC)c1` the value was 0.0198%; for `O=C1CCCN2N=C(SCc3ccccc3)SC2=N1`, 3.94%; for `O=C1CC(=O)N2N=C(Cc3ccccc3)SC2=N1`, 0.219%.
For the molecule `Clc1ccc(-n2ncc3c(NCCN4CCOCC4)ncnc32)cc1`, the “% Inhibition @ 10 uM” value is given as -5.01%.
With `COc1ccc(OC)c(CN2CCN(Cc3cccnc3)CC2)c1`, the “% Inhibition @ 10 uM” value is reported as -8.37%.
For the molecule `COC(=O)c1cc(S(=O)(=O)N(Cc2ccccn2)C2CCN(C)CC2)c[nH]1`, the “% Inhibition @ 10 uM” value is recorded as -8.65%.
With `CCOC(=O)C1CCN(Cc2c(C)[nH]c3ccccc23)CC1`, the “% Inhibition @ 10 uM” value was 2.23%.
`CN1CCN(c2ccc(NC(=O)c3cccc(Cl)c3Cl)cc2)CC1`: the “% Inhibition @ 10 uM” value is -2.8%.
For the molecule `Cc1ccc(S(=O)(=O)NC(C)(C)CSc2ncccn2)cc1`, the “% Inhibition @ 10 uM” value was -8.7%.
On to `COC(=O)c1ccc(NC(=O)c2ccccc2C(=O)O)cc1`, for which the “% Inhibition @ 10 uM” value came out at 0.266%.
`O=C(c1cccc2ccccc12)c1nc2c(n1O)CCCCC2`: the “% Inhibition @ 10 uM” value is -1.81%.
`Cc1ccc(/C=C(\C#N)c2nc(O)c3ccccc3n2)o1`: the “% Inhibition @ 10 uM” value came out at 2.26%.
Regarding `O=C(c1cccnc1)N1N=C(c2ccc(Br)cc2)CC1c1nc2ccccc2[nH]1` (stereo not shown), the “% Inhibition @ 10 uM” value is -7.7%.
As for `O=C(O)c1cc(N2C(=O)c3ccccc3C2=O)cc(N2C(=O)c3ccccc3C2=O)c1`, the “% Inhibition @ 10 uM” value was 1.64%.
Turning to `CCCCOc1ccc(C(=O)Nc2cc(-c3ccccc3)no2)cc1`, the “% Inhibition @ 10 uM” value is given as 0.0367%.
Take `CC1(C)CC(=O)C(/C=N/c2ccc(S(N)(=O)=O)cc2)=C(O)C1`: the “% Inhibition @ 10 uM” value is on record as -4.67%.
Take `Cc1ccc(Nc2ncccc2C(N)=O)cc1`: the “% Inhibition @ 10 uM” value is on record as 0.643%.
For the molecule `Cc1c(CNC(C)(C)C)c(C(=O)O)c(C)n1Cc1ccccc1F`, the “% Inhibition @ 10 uM” value is on record as -5.49%.
`CCN1C2=C(C(=O)CC(C)(C)C2)C(c2ccc(OC)c(C(=O)O)c2)C2=C1CC(C)(C)CC2=O`: the “% Inhibition @ 10 uM” value was determined as 0.13%.
Under `O=C(NCCc1ccccc1)c1ccc(Br)o1` stands -2.42%; under `Cc1cc(=O)oc(C)c1C(=O)NC1CCCc2ccccc21` (stereo not shown), -2.26%; under `O=C(NC(=S)N1CCSCC1)c1cccnc1`, -5.11%.
For the molecule `CC1=C(C(=O)OCc2ccc3c(c2)OCO3)C(c2ccccc2C)CC(=O)N1` (stereo not shown), the “% Inhibition @ 10 uM” value is recorded as -0.396%.
Take `O=C(NCc1ccccc1)c1sc2ccccc2c1Cl`: the “% Inhibition @ 10 uM” value is given as -4.03%.
